Test results taken from PubChem BioAssay AID1346428 (National Center for Advancing Translational Sciences (NCATS), 2018).
Where “and” joins values, the source holds several entries; their conditions need not be identical. Equal entries are not always repeated. Screen size: about 48,000 compounds; about 1,200 (2.5%) were called active. Inconclusive results (about 2%) are left out.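 How the source made its calls: active means activation of at least 60% and not above a set upper limit (about 1 call in 100 departs from these limits); inconclusive means activation of 40% to 60%, or above that upper limit; inactive means activation under 40%.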 The list shows a part of the results.

target: Probable G-protein coupled receptor 32 (Homo sapiens) (UniProt O75388); assay: qHTS for Agonists of Human Resolvin D1 Receptor DRV1; conditions: CHO-K1 GPR32 beta-arrestin PathHunter luminescence, 90 min; at 76.9 µM; hits give high values; zero percent set by DMSO-only wells; further: 0% is about no effect
Chain of UniProt O75388 (O75388 whole entry, looked up): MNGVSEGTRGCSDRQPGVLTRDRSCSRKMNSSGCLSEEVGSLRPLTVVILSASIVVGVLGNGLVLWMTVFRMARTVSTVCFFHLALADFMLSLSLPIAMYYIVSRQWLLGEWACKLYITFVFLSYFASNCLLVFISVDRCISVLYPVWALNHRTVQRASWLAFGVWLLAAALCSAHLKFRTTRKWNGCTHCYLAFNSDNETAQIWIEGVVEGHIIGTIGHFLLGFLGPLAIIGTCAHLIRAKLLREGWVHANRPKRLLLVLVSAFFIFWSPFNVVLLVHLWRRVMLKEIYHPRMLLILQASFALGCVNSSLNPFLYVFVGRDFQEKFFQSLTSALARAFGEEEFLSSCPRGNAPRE
How it was run: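 Using DMSO wells as EC0, agonist-induced signal was taken as chemiluminescence from beta-Gal reconstituted upon beta-arrestin recruitment to GPR32 in CHO-K1 cells after 90 min compound treatment.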

activation, inactive:
CC(=O)CC(c1ccccc1)c1c(O)c2ccccc2oc1=O (centres undefined) -8.62%, Cc1ccccc1OCCSc1nnc(-c2ccc([N+](=O)[O-])cc2)o1 5.65%, O=C(NCC(c1ccc2c(c1)OCO2)N1CCOCC1)C(=O)Nc1ccc(Cl)cc1 (centres undefined) -2.22%, COc1ccc(CNC(=O)CSCc2ccc(C)cc2)c(OC)c1 -18%, O=C(c1ccc2c(c1)N(Cc1cccc(Cl)c1)C(=O)c1ccccc1S2(=O)=O)N1CCN(Cc2ccccc2)CC1 -26%, CCc1cc2c(cc3c(=O)n(CC(=O)NC(C)C)nc(CC)n32)s1 -14.5%, COc1ccccc1NC(=O)c1cc2c(n(-c3ccc(C)cc3)c1=O)CC(C)(C)CC2=O -3.04%, CCC1CCCCN1CCCNC(=O)c1sc2nc(C)cc(C)c2c1-n1cccc1 (centres undefined) -20.5%, Cc1ccc(NS(=O)(=O)c2ccc(-c3cc(C)no3)cc2)c(C)c1 -5.6%, O=C1NS(=O)(=O)c2ccccc21 -7.02%, COc1ccc(CNC(=O)Cn2c(=O)n3nc(-c4cccc(F)c4)nc3c3ccccc32)cc1OC 18.8%, NS(=O)(=O)c1cc2c(cc1Cl)NC(C1CC3C=CC1C3)NS2(=O)=O (centres undefined) 20.2% and -0.0339%, O=C(Nc1ccc(F)cc1F)c1cc(CN2CCOCC2)on1 2.99%, CCc1cc(=O)oc2c(C)c3c(cc12)CN(CCc1ccccc1)CO3 -34.7%, COc1ccc(OC)c(NS(=O)(=O)c2ccc3c(c2)CCCN3C(=O)C2CCC2)c1 -18.5%, COc1ccc(CNC(=O)C2=Cc3cccc(OC)c3OC2)cc1OC -17.1%, Cc1ccc(S(=O)(=O)Nc2ccc3c(c2)CCCN3C(=O)c2cccs2)cc1C -21.5%, COc1cc(Br)c(C2CC(=O)Nc3cc4c(cc32)OCCO4)cc1OC (centres undefined) 0.201%, COc1cccc(C(c2sc3nc(-c4ccco4)nn3c2O)N2CCC3(CC2)OCCO3)c1 (centres undefined) -5.27%, CCc1nn(CC(=O)NCCN(CC(C)C)CC(C)C)c(=O)c2cc3sc(C)cc3n12 -8.49%, Cc1cccc(NC(=O)C(Cc2ccccc2)N2Cc3ccccc3C2=O)c1C (centres undefined) -26.4%, CCc1ccc(NC(=O)c2ccc(F)c(S(=O)(=O)N3CCc4ccccc4C3)c2)cc1 -9.55%, CNS(=O)(=O)c1cn(CC(=O)Nc2ccc(C)cc2C)cc1S(=O)(=O)NC -1.36%, Cc1ccc(C2=Nc3ccccc3NC(c3ccncc3)=N2)cc1 15.2%, CCOc1ccc(-c2nc3c(C#N)c[nH]n3c2NC2CCCC2)cc1 -35.2%, Cc1ccc(-c2cn3c(n2)sc2cc(C(=O)NCCCc4ccccc4)ccc23)cc1 -15.5%, COc1ccc(NS(=O)(=O)c2ccc(NC(=O)N3CCCC3)cc2)cc1 36.9%, CCOC(=O)c1cc(-c2ccc(C)cc2)nn1Cc1ccccc1 -11.5%, CCc1ccccc1NC(=O)C1CCCN(S(=O)(=O)c2cccc3nsnc23)C1 (centres undefined) -0.383%, COc1ccc(CCNC(=O)CCc2c(C)nc3c(c(C)nn3-c3ccc(C)cc3)c2C)c(OC)c1 -0.584%, COc1ccc(Nc2cc(C)nc(-n3nc(C)cc3C)n2)cc1Cl -16.7%, COc1ccc(-c2cc(C(=O)Nc3c(Cl)cccc3Cl)no2)cc1OC -8.41%, Cc1ccc(-n2c3c(c(=O)[nH]c2=O)C(NC(=O)c2ccccc2F)(C(F)(F)F)C(=O)N3)cc1C (centres undefined) -5.51%, CCc1ccc(N2CCn3c2nc2c3c(=O)n(Cc3ccc(F)cc3)c(=O)n2C)cc1 -11.1%, COc1ccc2c(c1)c(=O)c(S(=O)(=O)c1ccc(C)c(C)c1)cn2CC(=O)Nc1ccccc1 12.6%, CCN(CCCNC(=O)c1cc2c(=O)n(CC)c3ccccc3c2s1)c1cccc(C)c1 -6.64%, Cc1ccccc1-c1nc(CS(=O)(=O)CC(=O)NC(C)c2ccccc2)c(C)o1 (centres undefined) 1.53%, O=C(Nc1cc(F)ccc1F)C1COc2ccccc2C1 (centres undefined) 10.5%, COc1cc(-c2noc(C3CC(=O)N(c4ccc5c(c4)OCCO5)C3)n2)cc(OC)c1OC (centres undefined) 6.48%, COc1ccc(Cl)cc1NC(=O)CN(c1cc(C)cc(C)c1)S(=O)(=O)c1c(C)n[nH]c1C 45.1%, CCc1ccc(NC(=O)c2cc3c(=O)n(Cc4cccs4)ccc3nc2C)cc1 -26.4%, COc1ccc(C(=O)Nc2ccc(-n3nncc3-c3ccc(OC)c(OC)c3)cc2)cc1 -14.7%, Cc1ccc(S(=O)(=O)c2nc(-c3ccccc3)oc2N2CCN(c3ccccc3)CC2)cc1 -27.4%, Cc1ccc(-c2cc(C(=O)O)n(Cc3ccccc3)n2)cc1 -1.85%, Cc1ccc(CNc2ccc(-c3nc(-c4ccco4)no3)cc2[N+](=O)[O-])cc1 24%, CCN(CC)CC(=O)Nc1c(C)cccc1C -6.03% and -12.5%, CCc1nn(CC(=O)NCCCOC)c(=O)c2cc3occc3n12 -12.2%, O=C(CCCn1c(=O)[nH]c2ccccc2c1=O)NCc1ccccc1Cl -24.7%, CCCN(CCC)CCCNC(=O)Cn1cnc2onc(-c3ccc(F)cc3)c2c1=O -3.19%, O=C(Cn1cnc2c(nc3n2CCCCC3)c1=O)Nc1ccc(F)cc1 -5.88%, Cc1ccc(-c2nnc(Nc3ccc(Br)cc3)c3ccccc23)cc1S(=O)(=O)N1CCCCC1 -15.1%, CN(C(=O)c1nc(-c2cccc(F)c2)n2c1CCCCC2)c1ccccc1F -25.7%, Cc1cc(C)c2c(-n3cccc3)c(C(=O)NCCc3ccc(Cl)cc3)sc2n1 9.81%, COC(=O)C(C)Sc1nnc2cc(C)c3cc(C)cc(C)c3n12 (centres undefined) -23.4%
